Where only a bound is given, the exact number is not on record here.

This assay has as its target WDR5 (Homo sapiens, UniProt P61964). As to the kind of experiment: TR-FRET competition assay (MLL peptide binding, displacement of 10mer-Thr-FAM probe). Particulars: WDR5-His tag (Δ23, residues 24-334) 2 nM; 10mer-Thr-FAM 150 nM; Tb-anti-HIS 1 nM; 60 minutes room temperature; pH 7.2; read-out: Ki for Inhibition of WDR5 by TR-FRET assay.
As a reminder, the Ki is the equilibrium dissociation constant of an inhibitor or competing ligand from its target. Regarding `COc1cc(CN2CC(C)Oc3c(cc(Cn4ccn(C)c4=N)cc3-c3ccc(F)cc3C)C2=O)cc(OC)c1` (stereo not shown) [Example 17, 4-(3,5-Dimethoxybenzyl)-9-(4-fluoro-2-methylphenyl)-7-((2-imino-3-methyl-2,3-dihydro-1H-imidazol-1-yl)methyl)-2-methyl-3,4-dihydrobenzo[f][1,4]oxazepin-5(2H)-one], the inhibition constant Ki is under 50 pM.

With `Cc1cc(C)nc(CN2CCOc3c(cc(Cn4ccnc4C)cc3-c3cc(C)c(F)cc3C)C2=O)c1` [Example 51, 4-((4,6-Dimethylpyridin-2-yl)methyl)-9-(4-fluoro-2,5-dimethylphenyl)-7-((2-methyl-1H-imidazol-1-yl)methyl)-3,4-dihydrobenzo[f][1,4]oxazepin-5(2H)-one], the inhibitory constant (Ki) was under 50 pM. The result for `COc1cc(OC)c2nc(C)cc(N3CCOc4c(cc(Cn5ccnc5)cc4-c4cn(C)nc4C(F)(F)F)C3=O)c2c1` [Example 69, 7-((1H-imidazol-1-yl)methyl)-4-(6,8-dimethoxy-2-methylquinolin-4-yl)-9-(1-methyl-3-(trifluoromethyl)-1H-pyrazol-4-yl)-3,4-dihydrobenzo[f][1,4]oxazepin-5(2H)-one] reads under 50 pM. Take `COc1cc(CN2C[C@@H](C)Oc3c(cc(Cn4ccnc4C)cc3-c3ccc(F)cc3C)C2=O)cc(OC)c1` [Example 34, (R)-4-(3,5-Dimethoxybenzyl)-9-(4-fluoro-2-methylphenyl)-2-methyl-7-((2-methyl-1H-imidazol-1-yl)methyl)-3,4-dihydrobenzo[f][1,4]oxazepin-5(2H)-one]: the Ki is under 50 pM. The result for `Cc1cc(C)nc(CN2CCOc3c(cc(Cn4ccnc4C)cc3-c3cn(C)nc3C(F)(F)F)C2=O)c1` [Example 26, 4-((4,6-Dimethylpyridin-2-yl)methyl)-7-((2-methyl-1H-imidazol-1-yl)methyl)-9-(1-methyl-3-(trifluoromethyl)-1H-pyrazol-4-yl)-3,4-dihydrobenzo[f][1,4]oxazepin-5(2H)-one] reads under 50 pM; that for `CCc1nccn1Cc1cc2c(c(-c3cn(C)nc3C(F)(F)F)c1)OCCN(Cc1cc(C)cc(C)n1)C2=O` [Example 38, 4-((4,6-Dimethylpyridin-2-yl)methyl)-7-((2-ethyl-1H-imidazol-1-yl)methyl)-9-(1-methyl-3-(trifluoromethyl)-1H-pyrazol-4-yl)-3,4-dihydrobenzo[f][1,4]oxazepin-5(2H)-one], under 50 pM; that for `COc1cc(Cn2c(C)nc3c(-c4ccc(F)cc4C)cc(CNC4=NCCN4)cc3c2=O)cc(OC)c1` [Example 21, 6-(((4,5-Dihydro-1H-imidazol-2-yl)amino)methyl)-3-(3,5-dimethoxybenzyl)-8-(4-fluoro-2-methylphenyl)-2-methylquinazolin-4(3H)-one], 67 pM. The result for `Cc1ccnc(CN2CCOc3c(cc(Cn4ccnc4C)cc3-c3ccc(F)cc3C)C2=O)c1` [Example 25, 9-(4-Fluoro-2-methylphenyl)-7-((2-methyl-1H-imidazol-1-yl)methyl)-4-((4-methylpyridin-2-yl)methyl)-3,4-dihydrobenzo[f][1,4]oxazepin-5(2H)-one] reads 81 pM. The result for `COc1cc(CN2CNc3c(cc(Cn4ccn(C)c4=N)cc3-c3ccc(F)cc3C)C2=O)cc(OC)c1` [Example 23, 3-(3,5-Dimethoxybenzyl)-8-(4-fluoro-2-methylphenyl)-6-((2-imino-3-methyl-2,3-dihydro-1H-imidazol-1-yl)methyl)-2,3-dihydroquinazolin-4(1H)-one] reads under 50 pM; that for `CCc1cc(C(=O)NCCN(C)C)c2nccc(N3CCOc4c(cc(Cn5ccnc5)cc4-c4cn(C)nc4C(F)(F)F)C3=O)c2c1` [Example 73, 4-(7-((1H-imidazol-1-yl)methyl)-9-(1-methyl-3-(trifluoromethyl)-1H-pyrazol-4-yl)-5-oxo-2,3-dihydrobenzo[f][1,4]oxazepin-4(5H)-yl)-N-(2-(dimethylamino)ethyl)-6-ethylquinoline-8-carboxamide], under 50 pM.

As to `COc1cc(CN2C[C@H](C)Oc3c(cc(Cn4ccn(C)c4=N)cc3-c3ccc(F)cc3C)C2=O)cc(OC)c1` [Example 35, (S)-4-(3,5-Dimethoxybenzyl)-9-(4-fluoro-2-methylphenyl)-7-((2-imino-3-methyl-2,3-dihydro-1H-imidazol-1-yl)methyl)-2-methyl-3,4-dihydrobenzo[f][1,4]oxazepin-5(2H)-one], the Ki is under 50 pM.

Consider `Cn1cc(-c2cc(Cn3ccn(C)c3=N)cc3c(=O)n(-c4ccccc4-c4ccccc4)cnc23)c(C(F)(F)F)n1` [Example 24, 3-([1,1′-Biphenyl]-2-yl)-6-((2-imino-3-methyl-2,3-dihydro-1H-imidazol-1-yl)methyl)-8-(1-methyl-3-(trifluoromethyl)-1H-pyrazol-4-yl)quinazolin-4(3H)-one], for which the inhibition constant Ki turned out to be 610 pM.

Turning to `COc1ccc2nc(C)cc(N3CCOc4c(cc(Cn5ccnc5)cc4-c4cn(C)nc4C(F)(F)F)C3=O)c2c1` [Example 68, 7-((1H-imidazol-1-yl)methyl)-4-(6-methoxy-2-methylquinolin-4-yl)-9-(1-methyl-3-(trifluoromethyl)-1H-pyrazol-4-yl)-3,4-dihydrobenzo[f][1,4]oxazepin-5(2H)-one], the inhibition constant (Ki) is under 50 pM. In the case of `Cc1cc(C)nc(CN2CCOc3c(cc(Cn4ccn(C)c4=N)cc3-c3cn(C)nc3C(F)(F)F)C2=O)c1` [Example 22, 4-((4,6-Dimethylpyridin-2-yl)methyl)-7-((2-imino-3-methyl-2,3-dihydro-1H-imidazol-1-yl)methyl)-9-(1-methyl-3-(trifluoromethyl)-1H-pyrazol-4-yl)-3,4-dihydrobenzo[f][1,4]oxazepin-5(2H)-one], the Ki was under 50 pM. The result for `COc1ccc2nccc(N3CCOc4c(cc(Cn5ccnc5C)cc4-c4cn(C)nc4C(F)(F)F)C3=O)c2c1` [Example 58, 4-(6-Methoxyquinolin-4-yl)-7-((2-methyl-1H-imidazol-1-yl)methyl)-9-(1-methyl-3-(trifluoromethyl)-1H-pyrazol-4-yl)-3,4-dihydrobenzo[f][1,4]oxazepin-5(2H)-one] reads 63 pM. `COc1ccnc([C@H](C)N2CCOc3c(cc(Cn4cnn(C)c4=N)cc3-c3cn(C)nc3C(F)(F)F)C2=O)c1` [Example 53, (S)-7-((5-Imino-1-methyl-1,5-dihydro-4H-1,2,4-triazol-4-yl)methyl)-4-(1-(4-methoxypyridin-2-yl)ethyl)-9-(1-methyl-3-(trifluoromethyl)-1H-pyrazol-4-yl)-3,4-dihydrobenzo[f][1,4]oxazepin-5(2H)-one]: the Ki is under 50 pM. Consider `COc1ccnc([C@H](C)N2CCOc3c(cc(Cn4ccnc4C)cc3-c3ccc(F)cc3C)C2=O)c1` [Example 50, (S)-9-(4-Fluoro-2-methylphenyl)-4-(1-(4-methoxypyridin-2-yl)ethyl)-7-((2-methyl-1H-imidazol-1-yl)methyl)-3,4-dihydrobenzo[f][1,4]oxazepin-5(2H)-one], for which the Ki is under 50 pM. The result for `COc1cc(CN2CCNc3c(cc(Cn4ccn(C)c4=N)cc3-c3ccc(F)cc3C)C2=O)cc(OC)c1` [Example 29, 4-(3,5-Dimethoxybenzyl)-9-(4-fluoro-2-methylphenyl)-7-((2-imino-3-methyl-2,3-dihydro-1H-imidazol-1-yl)methyl)-1,2,3,4-tetrahydro-5H-benzo[e][1,4]diazepin-5-one] reads 55 pM; that for `COc1ccnc([C@H](C)N2CCOc3c(cc(Cn4ccnc4C)cc3-c3cc(C)ccc3C)C2=O)c1` [Example 56, (S)-9-(2,5-Dimethylphenyl)-4-(1-(4-methoxypyridin-2-yl)ethyl)-7-((2-methyl-1H-imidazol-1-yl)methyl)-3,4-dihydrobenzo[f][1,4]oxazepin-5(2H)-one], under 50 pM. The result for `Cc1cc(C)nc(CN2CCOc3c(cc(Cn4ccnc4C)cc3-c3cccnc3C)C2=O)c1` [Example 44, 4-((4,6-Dimethylpyridin-2-yl)methyl)-7-((2-methyl-1H-imidazol-1-yl)methyl)-9-(2-methylpyridin-3-yl)-3,4-dihydrobenzo[f][1,4]oxazepin-5(2H)-one] reads 200 pM; that for `COc1cc(CN2CCOc3c(cc(Cn4ccn(C)c4=N)cc3-c3cn(C)nc3C(F)(F)F)C2=O)cc(OC)c1` [Example 16, 4-(3,5-Dimethoxybenzyl)-7-((2-imino-3-methyl-2,3-dihydro-1H-imidazol-1-yl)methyl)-9-(1-methyl-3-(trifluoromethyl)-1H-pyrazol-4-yl)-3,4-dihydrobenzo[f][1,4]oxazepin-5(2H)-one], under 50 pM; that for `Cc1cc(C)nc(CN2CCOc3c(cc(Cn4ccnc4C)cc3-c3ccccc3C)C2=O)c1` [Example 45, 4-((4,6-Dimethylpyridin-2-yl)methyl)-7-((2-methyl-1H-imidazol-1-yl)methyl)-9-(o-tolyl)-3,4-dihydrobenzo[f][1,4]oxazepin-5(2H)-one], 76 pM.

`CCOC(=O)c1cc(CC)cc2c(N3CCOc4c(cc(Cn5ccnc5)cc4-c4cn(C)nc4C(F)(F)F)C3=O)ccnc12` [Example 66, Ethyl 4-(7-((1H-imidazol-1-yl)methyl)-9-(1-methyl-3-(trifluoromethyl)-1H-pyrazol-4-yl)-5-oxo-2,3-dihydrobenzo[f][1,4]oxazepin-4(5H)-yl)-6-ethylquinoline-8-carboxylate]: the Ki was found to be 50 pM.

Take `Cc1cc(C)nc(CN2CCOc3c(cc(Cn4ccnc4C)cc3-c3cc(Cl)ccc3C)C2=O)c1` [Example 52, 9-(5-Chloro-2-methylphenyl)-4-((4,6-dimethylpyridin-2-yl)methyl)-7-((2-methyl-1H-imidazol-1-yl)methyl)-3,4-dihydrobenzo[f][1,4]oxazepin-5(2H)-one]: the inhibition constant Ki was under 50 pM. The result for `CCc1cc(C(=O)NC)c2nccc(N3CCOc4c(cc(Cn5ccnc5)cc4-c4cn(C)nc4C(F)(F)F)C3=O)c2c1` [Example 72, 4-(7-((1H-imidazol-1-yl)methyl)-9-(1-methyl-3-(trifluoromethyl)-1H-pyrazol-4-yl)-5-oxo-2,3-dihydrobenzo[f][1,4]oxazepin-4(5H)-yl)-6-ethyl-N-methylquinoline-8-carboxamide] reads 64 pM.

(Values after patent US12577227B2, “WDR5 inhibitors and modulators” (Vanderbilt University, priority 2019, dated 2026).)
